PubChem BioAssay AID938 (National Center for Advancing Translational Sciences (NCATS), 2007)
Out of some 73,000 compounds screened, about 1,800 (2.5%) were called active. Inconclusive means that the source gave no clear call. Such entries were picked first, then a sample of the others. Calls follow the shape of the dose curve; as a rule, active = well fitted activation curve with a large enough effect; inconclusive = small, poorly fitted or top-dose-only effect; inactive = no such curve, though single readings can be large or run the other way. Potencies of inconclusive entries are left out as doubtful fits.

Test: qHTS Assay for Agonists of the Thyroid Stimulating Hormone Receptor: Activators of Intracellular cAMP Concentrations in Parental HEK 293; also: nearly all actives have a fitted effect of over 55% in size; as to activation: % of control where 0% means no effect
Conditions: parental HEK293 CNG cAMP sensor, membrane potential fluorescence; activation: at 57.1 µM (top of the series) unless noted
How it was run: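 Parental HEK 293 cells stably expressing a modified CNG channel (no TSHR) report cAMP rise as membrane depolarization. Membrane potential dye with 100 uM RO 20-1724 was loaded for 60 min at room temperature, then compound added for 30 min; fluorescence read at 590 nm.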
Potency is read from the fitted curve at half-maximal effect; tags tell the direction and shape of the fitted curve.

Structure (SMILES) | Potency | activation
CCNc1ncc2nc(-c3cc(F)cc(F)c3)c(=O)n(Cc3ccc(F)cc3)c2n1 | inconclusive [activator, single point] | –
C[C@@H](c1ccccc1)N1C(=O)[C@H]2[C@H]3[C@H](O)[C@H](O)C/C(=N/OCc4ccccc4)[C@H]3CC[C@@H]2C1=O | – | inactive: 2.18% [at 11.4 µM]
O=C(O)CCc1ccc(-c2ccc(Br)cc2)o1 | active: 3.98 µM | –
O=C(O)CCSCc1ccccc1 | – | inactive: 1.82% [at 11.4 µM]
Cc1csc2nc(CCNS(=O)(=O)c3ccc4c(c3)OCCO4)cn12 | inconclusive [activator, full curve, poor fit] | –
COC(=O)[C@@]1(Cc2ccc(OC)cc2)[C@H]2c3cc(C(=O)N(C)C)n(CCF)c3C[C@H]2CN1C(=O)c1ccccc1 | inconclusive [activator, full curve, poor fit] | –
CCOc1ccccc1-c1nc(-c2cc3ccc(C)cc3[nH]c2=O)no1 | inconclusive [activator, partial curve] | –
COCCn1nnnc1C(c1ccc(OC)c(OC)c1)N1CCc2ccccc21 (centres undefined) | inconclusive [activator, single point] | –
Cc1[nH]c2ccc(F)cc2c(=O)c1SC(F)(F)C(F)F | inactive | –
COc1ccc(C(=O)Nc2ccc(Cl)cc2C(=O)NCc2ccco2)cc1OC | active: 25.1 µM | –
Cc1cc(C)c(C#N)c(SCC(=O)OC2CCCCC2)n1 | inconclusive [activator, partial curve] | –
COc1cccc(OCCn2c(C)c(/C=N/n3cnnc3)c3ccccc32)c1 | inconclusive [activator, single point] | –
CC1CCCN(C(C(=O)Nc2ccc3c(c2)OCO3)c2ccccc2)C1 (centres undefined) | inconclusive [activator, partial curve] | –
CCNC(=O)CCC(=O)Nc1cc(Cl)ccc1C | inconclusive [activator, single point] | –
Cc1cc(C)nc(-n2nc(C)cc2Nc2ccccc2)n1 | inactive | –
OCCN1CCN(c2nc(-c3ccccc3)nc3c2oc2ccccc23)CC1 | inactive | –
CCOc1ccc2nc(-c3ccccc3)[nH]c2c1 | active: 15.8 µM | –
Cn1c(=O)c(-c2ccc(Cl)cc2)nc2cncnc21 | inconclusive [activator, partial curve] | –
Cc1cc(C)cc(OCc2nnc(SCC(=O)c3ccccc3)o2)c1 | inconclusive [activator, partial curve] | –
COc1ccc(Cn2nnnc2C(CC(C)C)N2CCN(c3ccccc3)CC2)cc1 (centres undefined) | inconclusive [activator, full curve] | –
Cc1sc2ncnc(SCc3ccco3)c2c1C | inconclusive [activator, partial curve] | –
CCn1c(C)nc2cc(C(=O)OCCC(F)(F)F)ccc21 | inactive | –
CCOc1cccc(/C(O)=C2/C(=O)C(=O)N(CCOC)C2c2ccco2)c1 (centres undefined) | inconclusive [activator, single point] | –
COc1cc(OC)c(OC)cc1CN(C)CCc1ccccn1 | inactive | –
Cn1c(C(=O)NCCCN2CCN(c3ccccc3F)CC2)cc2c(=O)n(C)c3ccccc3c21 | inconclusive [activator, single point] | –

Structure (SMILES) | Potency | activation
O=C(O)c1cc2ccccc2n1-c1ccccc1 | inconclusive [activator, full curve, poor fit] | –
CCOC(=O)N1CCN(C(=O)c2ccc3c(=O)n(Cc4ccccc4)c(=S)[nH]c3c2)CC1 | inconclusive [activator, partial curve] | –
CC1(C)CC(=O)C2=C(C1)N=C1SCCC(=O)N1C2c1ccccc1 (centres undefined) | inconclusive [activator, single point] | –
CCNc1ncc2nc(C)c(=O)n(Cc3cccs3)c2n1 | inconclusive [activator, partial curve] | –
Cc1ccc2nc(Nc3ncc4c(n3)CCCC4=O)nc(C)c2c1 | inactive | –
CC(C)(C)N1C(=O)c2ccc(C(=O)Nc3nccs3)cc2C1=O | inactive | –
O=C(c1csnn1)N1CCC[C@@]2(CCN(Cc3ccccc3)C2)C1 | inconclusive [activator, single point] | –
COc1cccc(Nc2c(F)c(F)c(F)c(F)c2C(=O)O)c1 | inconclusive [activator, single point] | –
O=C(NCC1COc2ccccc2O1)C1CCCN(S(=O)(=O)c2cnc[nH]2)C1 (centres undefined) | inconclusive [activator, single point] | –
CCc1nc(N2CCCCC2)c2oc3ccccc3c2n1 | active: 25.1 µM | –
COc1cc(/C=C\C(=O)N2CCC=CC2=O)cc(OC)c1OC | inactive | –
C=CCN1C(=O)C(O)(CC(=O)c2ccc(N)cc2)c2ccccc21 (centres undefined) | inconclusive [activator, partial curve] | –
CO[C@@H]1COC(=O)C/C=C\[C@@H](C)[C@@H]2C=C[C@H](O)[C@@H](COC(=O)CCC[C@H]1C)O2 | – | inactive: -0.815% [at 11.4 µM]
C=CCn1c(C)cc(C(=O)CSc2nc3ccccc3c(=O)[nH]2)c1C | active: 25.1 µM | –
O=C(COC(=O)c1ccccc1Nc1ccccc1)NCc1ccco1 | inconclusive [activator, partial curve] | –
CCNc1nc(NC(C)(C)C)nc(N(C#N)CC)n1 | inactive | –
CCOC(=O)c1ccc2nc(NC(=O)c3ccco3)sc2c1 | inactive | –
COc1cc(Cl)c(C)cc1NC(=O)CSc1nc2ccccc2o1 | inconclusive [activator, partial curve] | –
O=c1ccc2ccc(O)c(O)c2o1 | inactive | –
Cc1nc2sc(C(c3ccco3)N3CCN(c4ccc(F)cc4)CC3)c(O)n2n1 (centres undefined) | inconclusive [activator, single point] | –
C/C(=N\O)c1ccc2c3c([nH]c2c1)CCCC3 | inactive | –
Cc1ccc(C)c2[nH]c(=O)c(CN(CCN3CCOCC3)Cc3nnnn3CC3CCCO3)cc12 (centres undefined) | inconclusive [activator, full curve] | –
COc1ccccc1Nc1nc(C)cc(=O)[nH]1 | inactive | –
COc1ccccc1-c1ccc2ncnc(N(C)C)c2c1 | inconclusive [activator, partial curve] | –
Cc1ccc(-c2csc3ncn(/N=C/N(C)C)c(=O)c23)o1 | inactive | –

Structure (SMILES) | Potency | activation
c1ccc(CNc2ncncc2-c2ccc3c(c2)OCO3)cc1 | inconclusive [activator, full curve, poor fit] | –
CCCCOc1ccc(-c2nnn(CCC(=O)N3CCOCC3)n2)cc1 | inactive | –
Cc1ccc2cc3c(nc2c1)N(Cc1ccco1)CC3 | inconclusive [activator, single point] | –
Cc1ccc(C)c(Cn2nnc3c(=O)[nH]c(C4CCCN(C(=O)C5CCCCC5)C4)nc32)c1 (centres undefined) | active: 20 µM | –
CCc1nc(C)cc(N)c1OCc1ccccc1 | inconclusive [activator, partial curve] | –
O=C(CN1CCOc2ccccc21)NCc1ccc(F)cc1 | inconclusive [activator, single point] | –
CCOC(=O)C1CCN(C(=O)c2ccc(Cl)c(Cl)c2)CC1 | inconclusive [activator, partial curve] | –
CCOc1ccc2[nH]c(=O)c(CN(Cc3cccs3)Cc3nnnn3C(C)(C)CC)cc2c1 | active: 20 µM | –
Cc1cc2oc3c(c(=O)c2cc1C)C(c1cccc(Br)c1)N(Cc1ccco1)C3=O (centres undefined) | inactive | –
COCCn1c(=S)[nH]c2cc(C(=O)N3CCc4ccccc43)ccc2c1=O | active: 15.8 µM | –
CCOC(=O)c1ccc(NC(=O)c2cc3ccccc3o2)cc1 | active: 25.1 µM | –
Cc1ccccc1NC(=O)c1ccc(F)c(S(=O)(=O)N2CCN(c3ccccn3)CC2)c1 | inconclusive [activator, single point] | –
CCCCC(=O)Nc1ccc2c(c1)nc1n2CCOC1 | inconclusive [activator, single point] | –
COC(=O)CSc1nc2cc(C)cc(C)c2cc1C#N | inconclusive [activator, single point] | –
COc1ccc(N2CCN(c3nc(NCCO)nc(N4CCOCC4)n3)CC2)cc1 | inactive | –
Cc1nc2cnc(N3CCN(C)CC3)nc2n(CCC#N)c1=O | inconclusive [activator, single point] | –
Cc1cccc2cc3c(NC(=O)C(C)C)nn(C)c3nc12 | inactive | –
CN1CCC(=C2c3ccccc3CC(=O)c3sccc32)CC1 | inconclusive [activator, single point] | –
Cc1c(C(=O)NCC2CCCO2)sc2nc(-c3ccc(F)cc3)cn12 (centres undefined) | inconclusive [activator, single point] | –
O=C(c1ccc(Cl)c(Cl)c1)N(Cc1ccco1)c1ccc(O)cc1 | inconclusive [activator, full curve] | –
Cc1cc(N2CCN(c3ccccc3)CC2)n2c(n1)nc1ccccc12 | active: 25.1 µM | –
CC(C)(N=NC(C)(C)C1=NCCN1)C1=NCCN1 | – | inactive: -0.868% [at 11.4 µM]
Oc1c(C(Nc2ccccn2)c2ccccn2)ccc2cccnc12 (centres undefined) | inactive | –
CC(=O)OC[C@@H]1O[C@H](C/C=N\OC[C@@H](C)[C@H](OCc2ccccc2)C(C)C)C=C[C@@H]1OC(C)=O | inconclusive [activator, partial curve] | –
